About 200 (0.44%) of roughly 45,000 compounds were called active. Not shown: some 7% with an inconclusive outcome. Calls come from the whole dose curve; as a rule, active = well fitted activation curve with a large enough effect; inconclusive = small, poorly fitted or top-dose-only effect; inactive = no such curve, though single readings can be large or run the other way. The list shows a part of the results.
test: qHTS of TDP-43 Inhibitors: NCGC Sytravon Library Screen; settings: yeast TDP-43 toxicity rescue, BacTiter-Glo growth, 24 h; series mostly up to 46.1 µM; growth rescue (activation): at the top concentration; note: 0% is about no effect; nearly all actives have a fitted effect of over 55% in size
In short: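 TDP-43-expressing yeast, pregrown in raffinose, seeded at OD600 0.02 in galactose medium with compound for 24 hr at 30 deg C. Growth read by BacTiter-Glo luminescence, so rescue of toxicity appears as activation.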

Row | Compound | growth rescue (activation)
1 | O=C(NC1CCCc2c1cnn2-c1ccc(F)cc1F)c1ccccc1N1CCOCC1 (configuration not stated) | inactive: -37.3%
2 | Cn1cc(CCC(=O)NC2CC2)c2ccccc21 | inactive: -5.76%
3 | COc1cccc(OCc2ccc(Cn3nc(NC(=O)NCCc4ccc(OC)c(OC)c4)c4ccccc43)cc2)c1 | inactive: 12.6%
4 | CCCCNc1nc(=S)n(-c2ccccc2)c(C)c1C(C)=O | inactive: -7.63%
5 | CCC(=O)Nc1ccc2oc(-c3cccnc3)nc2c1 | inactive: 1.11%
6 | CCn1cc(C(=O)N2CCN(c3ccc(F)cc3)CC2)c2cc(OC)c(OC)cc2c1=O | inactive: 3.39%
7 | CCOC(=O)c1ccc(N2C(=O)CC(N3CCC(C(=O)OCC)CC3)C2=O)cc1 (configuration not stated) | inactive: -92.7%
8 | COc1ccc(C(C)=O)cc1CC(=O)NC1CCCCCC1 | inactive: -2.65%
9 | Cc1cccc(-c2noc(C(C)NC(=O)c3ccco3)n2)c1 (configuration not stated) | inactive: 17.8%
10 | CN(C)S(=O)(=O)c1ccc(C(=O)OCC(=O)c2ccc3c(c2)NC(=O)CO3)cc1 | inactive: 9.12%
11 | O=C(CSc1nc2ccccc2c(=O)n1Cc1ccco1)NCCN1C(=O)CSC1=O | inactive: 38.2%
12 | Cc1ccccc1C(=O)Nc1ccnn1C1CCN(CC2CC=CCC2)CC1 (configuration not stated) | inactive: -6.73%
13 | Cc1cccc(C(=O)OCC(=O)N2CCN(C(=O)c3ccco3)CC2)c1O | inactive: 11.4%
14 | CSc1ccccc1NC(=O)CSc1nnc(COc2ccccc2)o1 | inactive: 17.3%
15 | Cn1cnnc1SCC(=O)Nc1ccc(F)cc1F | inactive: -13.2%
16 | CC1CN(C(=O)COC(=O)c2ccc(O)cc2)CC(C)O1 (configuration not stated) | inactive: -20.8%
17 | Cc1ccc2nc(Cl)c3nnnn3c2c1 | inactive: -18.6%
18 | Cn1c(SCC(=O)N2CCN(C(=O)c3ccco3)CC2)nnc1-c1ccc(NS(C)(=O)=O)cc1 | inactive: -3.89%
19 | COc1ccc(-c2noc(C3CCCN(C(=O)c4ccccc4OC)C3)n2)cc1 (configuration not stated) | inactive: 21.2%
20 | Cc1cc(=O)oc(C)c1C(=O)N1CCN(C(c2ccccc2)c2ccccc2)CC1 | inactive: -9.34%
21 | CCCCn1c(SCC(=O)c2ccc(O)cc2O)nc2cc(S(N)(=O)=O)ccc21 | inactive: 4.66%
22 | Cc1c(C(=O)N2CCNCC2)oc2ccccc12 | inactive: 14.5%
23 | CC(=O)c1cccc(NC(=O)c2cccc3c(-c4cnn(C)c4)coc23)c1 | inactive: 36%
24 | COC(=O)N/N=C/c1cccc([N+](=O)[O-])c1 | inactive: 17.3%
25 | COc1ccccc1C(CNc1nc(C(F)(F)F)nc2ccccc12)N(C)C (configuration not stated) | inactive: 9.17%
26 | Cc1cc(=O)n2[nH]c(C(=O)O)nc2n1 | inactive: -11.5%

Row | Compound | growth rescue (activation)
27 | CCOc1ccc(S(=O)(=O)Nc2ccc3c(c2)OCO3)cc1 | inactive: 2.84%
28 | CCOC(=O)N1CCC(NC(=O)C2CCN(S(=O)(=O)c3ccc4c(c3)oc(=O)n4C)CC2)CC1 | inactive: 2.32%
29 | O=C(O)c1cccc(Nc2ncnc3c2cnn3-c2ccccc2)c1 | inactive: 34.6%
30 | COc1cc(C)nc2nc(SCc3ccccc3)nn12 | inactive: 42.4%
31 | Cc1ccc(NC(=O)N2CCCC2C(=O)Nc2ccc3c(c2)OCCO3)cc1 (configuration not stated) | inactive: -1.27%
32 | O=C(O)c1ccc2nc(-c3cc4cccc(O)c4oc3=O)[nH]c2c1 | inactive: -24.5%
33 | CN1CCN(C(=S)c2ccc([N+](=O)[O-])cc2)CC1 | inactive: 3.28%
34 | CN(C)CCCNC(=S)N1CCN(c2nc(-c3ccccc3)cs2)CC1 | inactive: 1.36%
35 | O=S(=O)(Nc1ccc(O)c(Sc2nc3ccccc3s2)c1)c1ccc(F)cc1 | inactive: 10.1%
36 | C/C(=N/Oc1nc(C)cc(C)n1)c1ccc(F)cc1 | inactive: 9.98%
37 | O=C(COc1ccc(Cl)cc1Cl)N1CCN(C(=O)c2ccco2)CC1 | inactive: 19.9%
38 | CCc1nc2ccc(C(=O)Nc3cccc(OCC(=O)N(C)C)c3)cn2c1N(C)Cc1ccc(OC)cc1 | inactive: -1.94%
39 | CCCC(=O)N1CCN(c2ccc(NC(=O)c3cccs3)cc2Cl)CC1 | inactive: -11.4%
40 | O=C(Cn1cnc2c(oc3nc4c(cc32)CCCC4)c1=O)Nc1cccc(Cl)c1 | inactive: -31%
41 | O=C(CSc1nc2ccccc2c(=O)n1-c1ccc(F)cc1F)Nc1ccc(N2CCOCC2)cc1 | inactive: -12.9%
42 | Cc1ccc(NC(=O)c2cc(N3C(=O)C=CC3=O)ccc2Cl)cc1C | inactive: -94.3%
43 | O=C(O)c1cc(NC(=O)c2ccco2)cc(NC(=O)c2ccco2)c1 | inactive: -19%
44 | CCOc1cc(/C=C/C(=O)c2ccc(OC)c(CN3CCOCC3)c2)cc(Br)c1O | inactive: -3.24%
45 | O=C(NCCN1CCC(Cc2ccccc2)CC1)C1CCN(S(=O)(=O)N2CCC3(CC2)OCCO3)CC1 | inactive: -2.68%
46 | CCOc1ccc2oc(C(=O)OCC(=O)NCC3CCCO3)c(C)c2c1 (configuration not stated) | inactive: 24.9%
47 | COc1ccc(CNC(=O)c2sccc2C)cc1 | inactive: 21.4%
48 | C#CCn1ccc(O)c(Cc2c(F)cccc2Cl)c1=O | inactive: 4.71%
49 | Cc1ccc(S(=O)(=O)N2CCOCC2)cc1NC(=O)c1cc2ccccc2oc1=O | inactive: -17.1%
50 | CN(Cc1ccc(F)cc1)C(=O)C(c1ccccc1)c1ccccc1 | inactive: 17.8%
51 | CCN(CCNC(=O)C1CCCN(S(=O)(=O)CC)C1)c1ccccc1 (configuration not stated) | inactive: 19.9%
52 | COC(=O)C1CCN(C(=O)Cc2ccccc2OC)CC1 | inactive: -13.7%
